Laboratory results: the antibiotic and cytotoxicity screens of Wong et al. (2023)
The list shows a part of the results.

Assays:
[1] = system: HSkMC (human skeletal muscle cells); assay: cytotoxicity call (relative viability < 0.9); details: 10 µM
[2] = system: HepG2; assay: cytotoxicity call (relative viability < 0.9); details: 10 µM
[3] = system: S. aureus RN4220; assay: growth inhibition call (relative growth <= 0.2); details: 50 µM

COc1ccc(S(=O)(=O)Nc2ccc3c(c2)C(=O)N([C@H](C)CO)C[C@@H](C)[C@H](CN(C)C(=O)c2ccccc2)OCCCC[C@@H](C)O3)cc1
cytotoxicity call [1]: inactive
cytotoxicity call [2]: inactive
growth inhibition call [3]: inactive

C[C@H]1CN([C@@H](C)CO)C(=O)c2cc(NC(=O)Nc3cccc4ccccc34)ccc2O[C@H]1CN(C)Cc1ccccc1
cytotoxicity call [1]: inactive
cytotoxicity call [2]: inactive
growth inhibition call [3]: inactive

CC(C)c1ccc2oc3nc(N)c(C(=O)O)cc3c(=O)c2c1
cytotoxicity call [1]: inactive
cytotoxicity call [2]: inactive
growth inhibition call [3]: inactive

Cc1noc(C)c1NC(=O)Nc1ccc2c(c1)C(=O)N([C@@H](C)CO)C[C@H](C)[C@@H](CN(C)Cc1ccc(C(F)(F)F)cc1)OCCCC[C@H](C)O2
cytotoxicity call [1]: inactive
cytotoxicity call [2]: inactive
growth inhibition call [3]: inactive

Cc1ccc(CNc2ccccn2)o1
cytotoxicity call [1]: inactive
cytotoxicity call [2]: inactive
growth inhibition call [3]: inactive

COc1ccc(S(=O)(=O)N(C)C[C@@H]2Oc3ccc(NS(=O)(=O)c4ccc(C)cc4)cc3CC(=O)N([C@H](C)CO)C[C@@H]2C)cc1
cytotoxicity call [1]: inactive
cytotoxicity call [2]: inactive
growth inhibition call [3]: inactive

Cc1ccc(S(=O)(=O)Nc2ccc3c(c2)C(=O)N([C@@H](C)CO)C[C@@H](C)[C@H](CN(C)Cc2ccncc2)OCCCC[C@@H](C)O3)cc1
cytotoxicity call [1]: inactive
cytotoxicity call [2]: inactive
growth inhibition call [3]: inactive

NC(=O)NCCCC(N)C(=O)O (configuration not stated)
cytotoxicity call [1]: inactive
cytotoxicity call [2]: inactive
growth inhibition call [3]: inactive

C[C@H](CO)N1C[C@H](C)[C@@H](CN(C)C(=O)Cc2ccccn2)Oc2cc(-c3ccc(C(=O)N(C)C)cc3)ccc2S1(=O)=O
cytotoxicity call [1]: inactive
cytotoxicity call [2]: inactive
growth inhibition call [3]: inactive

C[C@H](CO)N1C[C@H](C)[C@H](CN(C)Cc2ccc3c(c2)OCO3)Oc2c(NC(=O)Nc3ccc(C(F)(F)F)cc3)cccc2C1=O
cytotoxicity call [1]: inactive
cytotoxicity call [2]: inactive
growth inhibition call [3]: inactive

C[C@@H]1CCCCO[C@@H](CN(C)C(=O)C2CCCCC2)[C@H](C)CN([C@@H](C)CO)C(=O)c2cc(NC(=O)C3CCCCC3)ccc2O1
cytotoxicity call [1]: inactive
cytotoxicity call [2]: inactive
growth inhibition call [3]: inactive

C[C@H](CO)N1C[C@H](C)[C@H](CN(C)Cc2ccc(C(F)(F)F)cc2)Oc2c(NS(=O)(=O)c3ccc(Cl)cc3)cccc2C1=O
cytotoxicity call [1]: active
cytotoxicity call [2]: inactive
growth inhibition call [3]: inactive

Cc1ccc2[nH]c(=O)c(C3=NN(C(=O)CCC(=O)O)[C@H](c4ccc(Br)cc4)C3)c(-c3ccccc3)c2c1
cytotoxicity call [1]: inactive
cytotoxicity call [2]: inactive
growth inhibition call [3]: inactive

CC(C)CC#Cc1ccc2c(c1)O[C@@H](CN(C)C(=O)Cc1ccncc1)[C@H](C)CN([C@@H](C)CO)S2(=O)=O
cytotoxicity call [1]: inactive
cytotoxicity call [2]: inactive
growth inhibition call [3]: inactive

Cc1nc2c(c(N3CCOCC3)n1)OCC(=O)N2
cytotoxicity call [1]: inactive
cytotoxicity call [2]: inactive
growth inhibition call [3]: inactive

CCOC(=O)c1c(CN2CCN(c3ccccc3C)CC2)n(-c2ccccc2)c2cc(Br)c(O)cc12
cytotoxicity call [1]: active
cytotoxicity call [2]: inactive
growth inhibition call [3]: inactive

C[C@@H]1CN([C@@H](C)CO)C(=O)CCCn2nncc2CO[C@H]1CN(C)Cc1ccc(C(=O)Nc2ccccc2N)cc1
cytotoxicity call [1]: inactive
cytotoxicity call [2]: inactive
growth inhibition call [3]: inactive

CCNC(=O)[C@@H]1[C@@H](CO)[C@@H]2Cn3c(ccc(-c4cccc(C(=O)N(C)C)c4)c3=O)[C@H]1N2
cytotoxicity call [1]: inactive
cytotoxicity call [2]: inactive
growth inhibition call [3]: inactive

C[C@H](CO)N1C[C@H](C)[C@@H](CN(C)S(=O)(=O)c2cn(C)cn2)OCc2cn(nn2)CCCC1=O
cytotoxicity call [1]: inactive
cytotoxicity call [2]: inactive
growth inhibition call [3]: inactive

C[C@H](NC(=O)N(C)C[C@@H]1OCc2ccccc2-c2ccccc2C(=O)N([C@@H](C)CO)C[C@@H]1C)c1ccccc1
cytotoxicity call [1]: inactive
cytotoxicity call [2]: inactive
growth inhibition call [3]: inactive

C[C@H]1CCCCO[C@H](CN(C)S(=O)(=O)c2cccs2)[C@@H](C)CN([C@@H](C)CO)C(=O)c2cc(NC(=O)CCC(F)(F)F)ccc2O1
cytotoxicity call [1]: inactive
cytotoxicity call [2]: inactive
growth inhibition call [3]: inactive

C[C@@H]1CCCCO[C@H](CN(C)C(=O)Nc2cccc3ccccc23)[C@@H](C)CN([C@H](C)CO)C(=O)c2cc(NS(=O)(=O)c3ccc(F)cc3)ccc2O1
cytotoxicity call [1]: inactive
cytotoxicity call [2]: active
growth inhibition call [3]: inactive

CC(C)(C)[S@](=O)N1Cc2cc(C(=O)N3CCc4ccccc4C3)nc(-c3cccc(-c4ccncc4)c3)c2[C@@H]1CCO
cytotoxicity call [1]: inactive
cytotoxicity call [2]: inactive
growth inhibition call [3]: inactive

COc1cc(C2c3cc4c(cc3C(OC3OC5COC(C)OC5C(O)C3O)C3COC(=O)C23)OCO4)cc(OC)c1O (configuration not stated)
cytotoxicity call [1]: inactive
cytotoxicity call [2]: inactive
growth inhibition call [3]: inactive

Cc1ccc(NC(=O)N(C)C[C@@H]2OCCCC[C@H](C)Oc3ccc(NC(=O)C4CCCCC4)cc3C(=O)N([C@H](C)CO)C[C@@H]2C)cc1
cytotoxicity call [1]: inactive
cytotoxicity call [2]: inactive
growth inhibition call [3]: inactive

C[C@@H]1CCCCO[C@@H](CN(C)S(=O)(=O)c2ccccc2)[C@@H](C)CN([C@H](C)CO)C(=O)c2cc(NC(=O)CCC(F)(F)F)ccc2O1
cytotoxicity call [1]: inactive
cytotoxicity call [2]: inactive
growth inhibition call [3]: inactive

COc1ccc(NC(=O)Nc2ccc3c(c2)C(=O)N([C@@H](C)CO)C[C@H](C)[C@H](CN(C)S(=O)(=O)c2cn(C)cn2)O3)cc1
cytotoxicity call [1]: inactive
cytotoxicity call [2]: inactive
growth inhibition call [3]: inactive

COc1ccccc1CNC(=O)C[C@H]1C[C@@H]2c3cc(NC(=O)C4CCOCC4)ccc3O[C@@H]2[C@@H](CO)O1
cytotoxicity call [1]: inactive
cytotoxicity call [2]: inactive
growth inhibition call [3]: inactive

C[C@H]1CN([C@@H](C)CO)C(=O)Cc2cc(NC(=O)Cn3cnnn3)ccc2O[C@@H]1CN(C)Cc1ccc(C(F)(F)F)cc1
cytotoxicity call [1]: inactive
cytotoxicity call [2]: inactive
growth inhibition call [3]: inactive

C[C@H](CO)N1C[C@H](C)[C@@H](CN(C)Cc2ccncc2)Oc2ccc(NS(=O)(=O)c3cn(C)cn3)cc2C1=O
cytotoxicity call [1]: inactive
cytotoxicity call [2]: inactive
growth inhibition call [3]: inactive

Cc1noc(C)c1S(=O)(=O)N(C)C[C@@H]1Oc2ccc(NC(=O)c3ccncc3)cc2CC(=O)N([C@H](C)CO)C[C@@H]1C
cytotoxicity call [1]: inactive
cytotoxicity call [2]: inactive
growth inhibition call [3]: inactive

C[C@@H]1CCCCO[C@@H](CN(C)S(=O)(=O)c2ccccc2)[C@H](C)CN([C@@H](C)CO)C(=O)c2cc(NC(=O)Nc3ccc(F)cc3)ccc2O1
cytotoxicity call [1]: inactive
cytotoxicity call [2]: inactive
growth inhibition call [3]: inactive

COc1ccc([C@H]([C@@H](O)Cc2ccccc2)N(C/C=C/[C@@H](O)c2ccccc2)[C@@H](Cc2ccccc2)C(OC)OC)cc1
cytotoxicity call [1]: inactive
cytotoxicity call [2]: inactive
growth inhibition call [3]: inactive

C[C@H](CO)N1C[C@H](C)[C@@H](CN(C)Cc2ccc3c(c2)OCO3)Oc2ccc(NS(=O)(=O)c3cn(C)cn3)cc2CC1=O
cytotoxicity call [1]: inactive
cytotoxicity call [2]: inactive
growth inhibition call [3]: inactive

CO/N=C1\CN(c2nc3c(cc2F)c(=O)c(C(=O)O)cn3C2CC2)C[C@@H]1CN
cytotoxicity call [1]: inactive
cytotoxicity call [2]: inactive
growth inhibition call [3]: active

COCC(=O)N(C)C[C@@H]1Oc2cc(C#CCN(C)C)ccc2S(=O)(=O)N([C@@H](C)CO)C[C@@H]1C
cytotoxicity call [1]: inactive
cytotoxicity call [2]: inactive
growth inhibition call [3]: inactive

CC(=O)c1cccc(S(=O)(=O)N2[C@@H]3CC[C@@H](C3)[C@H]2c2nc3cccc(OCc4ccc(F)cc4)c3[nH]2)c1
cytotoxicity call [1]: inactive
cytotoxicity call [2]: inactive
growth inhibition call [3]: inactive

O=C(C[C@H]1CC[C@H]2[C@@H](COC[C@@H](O)CN2C(=O)Nc2cccc(F)c2)O1)NCCCN1CCOCC1
cytotoxicity call [1]: inactive
cytotoxicity call [2]: inactive
growth inhibition call [3]: inactive

COc1ccc(S(=O)(=O)N(C)C[C@@H]2Oc3ccc(NC(=O)Cn4cnnn4)cc3CC(=O)N([C@@H](C)CO)C[C@H]2C)cc1
cytotoxicity call [1]: inactive
cytotoxicity call [2]: inactive
growth inhibition call [3]: inactive

C[C@H](CO)N1C[C@H](C)[C@H](CN(C)S(=O)(=O)c2cccs2)Oc2ccc(NS(=O)(=O)c3ccccc3)cc2C1=O
cytotoxicity call [1]: inactive
cytotoxicity call [2]: inactive
growth inhibition call [3]: inactive

C[C@@H]1CCCCO[C@H](CN(C)S(C)(=O)=O)[C@H](C)CN([C@@H](C)CO)C(=O)c2cc(NS(=O)(=O)c3cccs3)ccc2O1
cytotoxicity call [1]: inactive
cytotoxicity call [2]: inactive
growth inhibition call [3]: inactive

COc1ccc([C@@H]([C@H](Cc2ccccc2)OC(C)=O)N2C[C@@H](OC(C)=O)[C@@H]3C(=NO[C@H]3c3ccccc3)[C@@H]2Cc2ccccc2)cc1
cytotoxicity call [1]: inactive
cytotoxicity call [2]: inactive
growth inhibition call [3]: inactive

C[C@@H]1CN([C@H](C)CO)C(=O)c2cccc(NS(=O)(=O)c3ccc(Cl)cc3)c2O[C@H]1CN(C)C(=O)Nc1cccc2ccccc12
cytotoxicity call [1]: inactive
cytotoxicity call [2]: inactive
growth inhibition call [3]: inactive

C[C@@H]1CN([C@@H](C)CO)C(=O)Cc2cc(NS(C)(=O)=O)ccc2O[C@H]1CN(C)Cc1ccc(C(=O)O)cc1
cytotoxicity call [1]: inactive
cytotoxicity call [2]: inactive
growth inhibition call [3]: inactive

Cc1noc(C)c1NC(=O)Nc1ccc2c(c1)C(=O)N([C@@H](C)CO)C[C@@H](C)[C@H](CN(C)CC1CCCCC1)OCCCC[C@@H](C)O2
cytotoxicity call [1]: inactive
cytotoxicity call [2]: inactive
growth inhibition call [3]: inactive

C[C@@H]1CN([C@H](C)CO)C(=O)c2cc(NC(=O)CCCCCC(=O)Nc3ccccc3N)ccc2O[C@@H](C)CCCCO[C@H]1CN(C)Cc1ccc(Cl)c(Cl)c1
cytotoxicity call [1]: inactive
cytotoxicity call [2]: inactive
growth inhibition call [3]: inactive

Nc1ccc(CCNc2ncnc3c2ncn3[C@@H]2O[C@H](CO)[C@@H](O)[C@H]2O)cc1
cytotoxicity call [1]: inactive
cytotoxicity call [2]: inactive
growth inhibition call [3]: inactive

CCCC#Cc1ccc2c(c1)O[C@H](CN(C)Cc1ccc3c(c1)OCO3)[C@H](C)CN([C@@H](C)CO)S2(=O)=O
cytotoxicity call [1]: inactive
cytotoxicity call [2]: inactive
growth inhibition call [3]: inactive

Cc1ccc(S(=O)(=O)N(C)C[C@@H]2Oc3ccc(NS(=O)(=O)c4cccs4)cc3C(=O)N([C@H](C)CO)C[C@@H]2C)cc1
cytotoxicity call [1]: inactive
cytotoxicity call [2]: inactive
growth inhibition call [3]: inactive

C=CC(=O)N1CC[C@@H](Oc2nc(Nc3ccc(N4CCC(N5CCN(C)CC5)CC4)cc3)c(C(N)=O)nc2CC)C1
cytotoxicity call [1]: active
cytotoxicity call [2]: active
growth inhibition call [3]: inactive

CC(C)NC(=O)N(C)C[C@H]1Oc2c(NC(=O)C3CCOCC3)cccc2C(=O)N([C@@H](C)CO)C[C@H]1C
cytotoxicity call [1]: inactive
cytotoxicity call [2]: inactive
growth inhibition call [3]: inactive

COc1cccc(S(=O)(=O)N(C)C[C@@H]2Oc3cc(C#CCC(C)C)ccc3S(=O)(=O)N([C@@H](C)CO)C[C@H]2C)c1
cytotoxicity call [1]: inactive
cytotoxicity call [2]: inactive
growth inhibition call [3]: inactive

COc1ccc2c(c1)OC(C)(C)C[C@@H]2N
cytotoxicity call [1]: inactive
cytotoxicity call [2]: inactive
growth inhibition call [3]: inactive

C[C@@H]1CN([C@@H](C)CO)C(=O)c2cccc(NS(=O)(=O)c3cccs3)c2O[C@@H]1CN(C)Cc1ccc(-c2ccccc2)cc1
cytotoxicity call [1]: inactive
cytotoxicity call [2]: active
growth inhibition call [3]: inactive
